# Test results from the supplement of paper PMC11417369.
# The other results are listed elsewhere or left out.
# Tested on: PfAP2-HC AP2 domain (GST-tagged)
# Experiment: gcPBM binding intensity (ln(normalized median fluorescence intensity)); higher = stronger DNA binding
# Method in brief: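 An Agilent 4 × 180k array carrying primer-extended double-stranded 36-bp intergenic genomic probes and negative controls received GST-tagged P. falciparum DNA-binding domains expressed in E. coli, about 25 μg on average, for 1 h. The binding buffer contained 1× PBS, 1% milk, 0.2 mg/ml BSA, 0.5% salmon testes DNA and 0.03% Triton X-100. Binding intensity is the top Masliner-normalised natural-log median intensity across replicate spots of either probe orientation, read after Alexa488 anti-GST antibody staining and a 488 nm scan.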
row,Sequence,gcPBM binding intensity (ln)
1,AAATTATTAAAAAAAAGTACATATATATATATATAT [XGTACX_site8313],9.3
2,ATAAATAATATATATACACACATATCTATACATATT [CACACA_site487],9.9
3,TATATTCTTTATAGGTGTACTTAATAAATAAAAAAT [XGTACX_site5378],9.44
4,TATGAACATAAATTTGCACACTGGATATAATATATA [CACACA_site2155],9.76
5,TATATATATGTGTTTACACACAATAATGAATTAAAA [CACACA_site4659],9.65
6,TATCTAGTTACTCCTTGTACATAATAAATGATTTTT [XGTACX_site5674],9.57
7,AGAAAGAAAGAATACACACACACATATATAAATATC [CACACA_site7716],10.4
8,ATTATCAATATGAAGGTGCATTTAAATAATATTTAC,9.61
9,AAATATTATAGCACCACACACTTATTTTATTTATAT [CACACA_site7133],10.1
10,ACTAAACTTTTATGTACACACATATAACATTAATTT [CACACA_site5276],9.98
11,TACGTAAAAATAGGACGTACTTATTTAGAAACCATA [XGTACX_site2498],9.63
12,TACAAAATGGGGAACACACACATATATATATATATA [CACACA_site3844],9.99
13,TTGGTACCTATAGATACACACATATATACCTATATA [CACACA_site5812],9.74
14,TTTTTTTTTTTTGTCACACACCTTCATAAGAAAAAA [CACACA_site4779],9.54
15,GTACAGATATTGTACATACACACCTATATAAATATC [CACACA_site5739],9.82
16,TAAATCCGCAGGCACACACACATATTAAGAAAAAAA [CACACA_site6061],10.2
17,ATGAAAAAACATAATTGTACAAAAGTTGGATTCGAT [XGTACX_site7732],10
18,ATCATCACATAAGAAAATAGATAAAAAAAAAAAAAT [XGTACX_negctrl_site589],9.51
19,ATTAAATGATTCATATGTACATAAATAAATAAATAT [XGTACX_site2249],9.77
20,TTTCTTTTTAAAGTGTATTAAAATTGAATAAAAAGA [XGTACX_negctrl_site408],9.03
21,TATTAATATTTACACACATGCGCACACATAAATAAA [TGCATGCA_site609],10.2
22,AAAGAGAAACAAAATTGTACATTATATTGTAGACGT [XGTACX_site976],9.75
23,TATATTTATAAGTGTACACATTATATAAATCCCTAT [CACACA_site6122],9.57

row,Sequence,gcPBM binding intensity (ln)
1,TGGGAACAATATATTTGTACTTAAATAAATAAAAAA [XGTACX_site6762],9.47
2,GAACAAAATGATAGAAGTACAAATATTTATTTTGTT [XGTACX_site7146],9.69
3,TAAGAAAAATATATATGTACACATATATATATATAT [XGTACX_site8542],9.61
4,TGTATGTTATATACAACACACAAAAAAAAACAAGTT [CACACA_site301],9.95
5,AACTTTTATACGGATACACACAAAAAAAAATAAAAA [CACACA_site6547],9.72
6,TACAATATTTCGAGCTTGCACTTTTATTAAGTAAAT,9.52
7,TATCTGTATTTGTATACACACAAATGTATTTATTTA [CACACA_site4830],9.9
8,TATACAGACAGACACACACACATATATAAATATGTA [CACACA_site6912],10.6
9,ATTATTATTTTTAACTGTACATAGATATAGATATCC [XGTACX_site8714],9.49
10,TAATTAGCATAATACACATGCATACATTTATATATA [TGCATGCA_site542],9.65
11,TACATATATCTATGTGTGCACTTATTTCCGGACAAA,9.82
12,AAAAAAAAAAAACATACACACAAGAACAAAATATGA [CACACA_site3002],10.6
13,AGTCTTTTACATTGCACACACATTTCTTTCCTTTTG [CACACA_site2988],10.5
14,ATGTGTATACTAAGAACACACAAGTTACTTGGTGTT [CACACA_site6864],9.78
15,TATTTAAAAGATGAAAGTACACATTTAATTACATTT [XGTACX_site3781],9.36
16,TATATTTAACATACTTTTTTTTTTTTTTTTTTTTTT [CACACA_negctrl_site938],9.27
17,TTATAACTTTTCACAAGTACATATATATATGTATAA [XGTACX_site2306],9.53
18,ATATATATGTTTTTATGTACATATTTTTCTCCTTCA [XGTACX_site5899],9.74
19,TTTGGAAAGCGTGATTTTTGACAAACACAAAAAAAA [CACACA_negctrl_site651],9.41
20,AATAAATTCATGAATTGTACGTAATGATAACATGAA [XGTACX_site2591],9.83
21,ATTTTCTTTTTTAAACGTACACATATTAAATATATA [XGTACX_site7773],9.68
22,TTTTTATTCCAGTATTCACACACGAATAACCACATA [CACACA_site1897],9.82
23,ATTATTTTATGAGACATAAAAAAAAAAAAAAAAAAA [CACACA_negctrl_site1067],8.7

row,Sequence,gcPBM binding intensity (ln)
1,AGATGAGAGATATATACACACAATAATACCTATTTA [CACACA_site6542],9.92
2,ATATTATTTATAAAAGTGCAAAAATCACTTCTTTTA [GTGCAC_site9656],9.43
3,TTTAAAAAGTTATGAAGTACATATATATATATATAT [XGTACX_site2188],9.46
4,ATTTCCTTGAATGTTGCATGCTGTATTTTAATTAAA [TGCATGCA_site280],9.67
5,AAAAAAAGGAAATTTACACACACATATAATATACAT [CACACA_site3297],10.2
6,AAAAAAAAAAAGTGCACACATAAAAATATGATCTAA [CACACA_site572],10.2
7,TAAATTTTTCTAAGTGCATGTTAATTTTTCAATTTA [TGCATGCA_site906],9.44
8,TAGATTATTATACTAGTGCAAATTATTTAAGAAAAA,9.5
9,TGCACGCACAGACACACACACAACTAAAAAATAATG [CACACA_site7250],10.3
10,AAAAAAAGGTAAAATTGTACATACGCACAAAAATAT [XGTACX_site2887],9.88
11,TAATATCGTATATGAGTGCAATATTTTAGATTTTGA,9.49
12,AATATATCAAAAATGATGACATAAATATATTAATTT [GTGCAC_negctrl_site530],9.62
13,TATATATATATATATATATATATATATGTATATATG [XGTACX_negctrl_site242],9.34
14,ATAATCCACAAGCACACACACACACCCATATATATA [CACACA_site1268],10.6
15,AACTTTAAACCCTGAACACACACAAATACACCCAAA [CACACA_site7971],10.2
16,CTTTTCTATTTTTTCGTGCACTATAAATATTTTAAT,9.91
17,CACCAAAATATATGTACATATGATAAATGTGAATAT [GTGCAC_negctrl_site83],9.76
18,AAAATTATCGTTATATGTACGCATCTTAATACGTAT [XGTACX_site4063],9.76
19,GTCTATATATTTTAGGTGCAACGTAAATGTAAAAAT,9.71
20,TTTTACAATATTTTGTGTACTTATATTATGAGCTTA [XGTACX_site3287],9.58
21,TAACTTTTTTTTTTTTTTTTTTAACTTTTATGTAAT [GTGCAC_negctrl_site156],9.45
22,TTATTTATCAAAAAATGTACAAAAATATATAAACAA [XGTACX_site940],9.6
23,TTTGTCAACCAAAATTGTACAAATGTATTCCCAATA [XGTACX_site1350],9.43

row,Sequence,gcPBM binding intensity (ln)
1,TTTTAAAAAAGAAAAAAAAAGGATCAGAGAAATATT [GTGCAC_negctrl_site79],9.52
2,TTATATTTATTTAATGAACACACGATATATTATTTT [CACACA_site1601],9.65
3,AAAAAAATTAATAATGTGCACTTTTTAGTATTTTTA [GTGCAC_site9744],9.45
4,AAATGTTAATTAAATGCATGTACAAAAGGAGCGAAT [TGCATGCA_site942],10.2
5,TTGTAGATATTTATATGTACGAATTTATAAATATAG [XGTACX_site3611],9.3
6,CTCAAAAAATATGAACGTACAAAATAAGTAATGACA [XGTACX_site590],9.71
7,TTTTTTTTTTTTTTTGCACACATTTTAATTATTTTT [CACACA_site341],9.71
8,AAAAAAAAAAAAAAAGGTACACAAAACGGTATTATT [XGTACX_site7064],9.63
9,ATACATATTAATATGTGTACACATTTTTATTTTTTT [XGTACX_site930],9.88
10,AACTCATAGGAGTGTGCACACAAAAAATTAAAAAAA [CACACA_site8996],10.3
11,TTTTTTTTTTTTGTCACACATATGGAATATATCTAT [CACACA_site5899],9.62
12,ATGTCCTATATTAGTACACACATGAAAATATAAATA [CACACA_site7497],9.66
13,ACAATTAATCAAACAAGTACAAAATATATCCCTATT [XGTACX_site6223],9.68
14,TCCTATGATGATGATAGTACATATGAGTTCAAAAAA [XGTACX_site273],9.44
15,TTATTGTTATTTGTTTGTACATAATATAATATATTA [XGTACX_site6477],9.64
16,AACCATACACAAATAAACATAGACACAGATACCTCC [CACACA_negctrl_site598],10.6
17,AATATAAAAAAAAACAAAAAAAAAATTTTGGTTCAC [CACACA_negctrl_site1290],9.56
18,AATAATAAATAAATGTGTACTTAAAAATATTATATT [XGTACX_site3005],9.72
19,TTGTATCATATATTATGTACATATTGATTTATTACC [XGTACX_site12],9.59
20,CAAAGTATTATGATTACACACATGTGCTTTTTTCTT [CACACA_site163],10
21,TTTTTAAAATATTTAACACACAATTATAATGCATAA [CACACA_site3932],9.46
